The other results are listed elsewhere or left out.

The test concerns S. aureus RN4220. Kind of test: growth inhibition call (relative growth <= 0.2). Particulars: 50 µM.
As to `Cn1cnc(S(=O)(=O)N2C[C@H](O)COC[C@@H]3O[C@@H](CC(=O)N4CCN(c5ccccc5)CC4)CC[C@H]32)c1`, the growth inhibition call was “inactive”.
Next, `C[C@H](CO)N1C[C@H](C)[C@H](CN(C)C(=O)NC2CCCCC2)Oc2ccc(NC(=O)Cn3cnnn3)cc2C1=O`: “inactive”; `COCC#Cc1cnc2c(c1)C(=O)N([C@@H](C)CO)C[C@@H](C)[C@@H](CN(C)S(=O)(=O)c1cccc(OC)c1)O2`: “inactive”.
In the case of `C[C@@H]1CN([C@H](C)CO)C(=O)c2cc(NC(=O)CCCN(C)C)ccc2O[C@@H]1CN(C)C(=O)Nc1ccc(F)cc1` it was “inactive”.
Next, `CO[C@H]1CN(C)C(=O)c2ccc(NS(C)(=O)=O)cc2OC[C@@H](C)N(C(=O)CN(C)C)C[C@H]1C`: “inactive”; `Cn1c(=O)n2n(c1=O)[C@H](C1CC1)C=C1CN3[C@@H]([C@H](Cc4ccccc4)OC(=O)[C@@H]3COC(=O)NCCCCCC(=O)NO)[C@@H]12`: “inactive”; `O=P(O)(O)C(O)(Cn1ccnc1)P(=O)(O)O`: “inactive”.
In the case of `COc1ccc(NC(=O)Nc2ccc3c(c2)C(=O)N([C@H](C)CO)C[C@@H](C)[C@@H](CN(C)Cc2ccc(Cl)c(Cl)c2)OCCCC[C@H](C)O3)cc1`, the growth inhibition call was “inactive”.
Turning to `C[C@@H]1CN([C@@H](C)CO)C(=O)Cc2cc(NS(=O)(=O)c3ccc(F)cc3)ccc2O[C@H]1CN(C)S(=O)(=O)c1cccs1`, the growth inhibition call is “inactive”.
Next, `C[C@@H]1CN([C@@H](C)CO)C(=O)c2cc(NS(=O)(=O)c3ccc(F)cc3)ccc2O[C@@H](C)CCCCO[C@H]1CN(C)Cc1ccccc1`: “inactive”.
For `C[C@H](CO)N1C[C@H](C)[C@@H](CN(C)Cc2ccc(C(=O)Nc3ccccc3N)cc2)Oc2c(NC(=O)Nc3ccc(C(F)(F)F)cc3)cccc2C1=O`, the growth inhibition call was “inactive”.

The values are drawn from the antibiotic and cytotoxicity screens of Wong et al. (2023).
